Our source for the binding values is paper PMC5517149.

Amino acid sequences for entries named in this document (tags omitted). A change or cut given only in a name is not applied to a line headed by its entry. Chains listed by the source or under a name are the forms on record and can include a tag or linker.
UniProt Q9NQC3: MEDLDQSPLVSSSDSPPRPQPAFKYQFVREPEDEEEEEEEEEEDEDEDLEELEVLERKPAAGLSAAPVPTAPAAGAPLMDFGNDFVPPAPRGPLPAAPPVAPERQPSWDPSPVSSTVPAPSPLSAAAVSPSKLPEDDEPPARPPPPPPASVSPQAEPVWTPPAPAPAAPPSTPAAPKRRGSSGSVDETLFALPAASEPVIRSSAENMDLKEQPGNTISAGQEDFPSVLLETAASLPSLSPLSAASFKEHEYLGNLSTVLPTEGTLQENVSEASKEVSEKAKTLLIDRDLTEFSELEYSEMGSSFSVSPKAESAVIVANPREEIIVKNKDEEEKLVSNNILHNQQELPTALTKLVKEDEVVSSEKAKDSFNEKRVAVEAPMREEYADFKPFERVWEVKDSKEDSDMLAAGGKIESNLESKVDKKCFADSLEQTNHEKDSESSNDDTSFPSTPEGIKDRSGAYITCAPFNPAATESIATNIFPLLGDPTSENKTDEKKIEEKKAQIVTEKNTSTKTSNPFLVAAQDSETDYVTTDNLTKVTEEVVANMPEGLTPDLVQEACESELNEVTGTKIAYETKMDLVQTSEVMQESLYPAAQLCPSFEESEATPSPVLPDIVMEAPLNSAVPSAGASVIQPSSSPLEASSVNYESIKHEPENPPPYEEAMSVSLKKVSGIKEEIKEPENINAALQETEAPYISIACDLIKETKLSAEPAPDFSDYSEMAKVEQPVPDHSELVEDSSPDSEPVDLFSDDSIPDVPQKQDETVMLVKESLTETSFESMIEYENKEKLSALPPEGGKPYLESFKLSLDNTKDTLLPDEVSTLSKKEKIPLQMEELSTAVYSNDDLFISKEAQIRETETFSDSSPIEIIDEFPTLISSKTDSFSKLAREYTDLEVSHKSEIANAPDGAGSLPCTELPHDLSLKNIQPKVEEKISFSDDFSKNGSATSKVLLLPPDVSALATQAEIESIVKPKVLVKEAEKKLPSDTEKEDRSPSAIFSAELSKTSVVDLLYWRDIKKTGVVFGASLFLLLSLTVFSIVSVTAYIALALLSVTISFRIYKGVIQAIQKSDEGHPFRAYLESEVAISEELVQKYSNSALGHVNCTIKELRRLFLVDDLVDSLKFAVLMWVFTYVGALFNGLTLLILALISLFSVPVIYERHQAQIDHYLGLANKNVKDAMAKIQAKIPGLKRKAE
FLAG-HA-RTN4S (Q9NQC3-3, form named): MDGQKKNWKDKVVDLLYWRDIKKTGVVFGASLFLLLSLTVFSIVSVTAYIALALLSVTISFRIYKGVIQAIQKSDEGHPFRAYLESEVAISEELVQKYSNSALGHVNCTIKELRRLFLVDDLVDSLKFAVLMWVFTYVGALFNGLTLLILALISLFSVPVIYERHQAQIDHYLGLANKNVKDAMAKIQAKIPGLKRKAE
UniProt Q16799: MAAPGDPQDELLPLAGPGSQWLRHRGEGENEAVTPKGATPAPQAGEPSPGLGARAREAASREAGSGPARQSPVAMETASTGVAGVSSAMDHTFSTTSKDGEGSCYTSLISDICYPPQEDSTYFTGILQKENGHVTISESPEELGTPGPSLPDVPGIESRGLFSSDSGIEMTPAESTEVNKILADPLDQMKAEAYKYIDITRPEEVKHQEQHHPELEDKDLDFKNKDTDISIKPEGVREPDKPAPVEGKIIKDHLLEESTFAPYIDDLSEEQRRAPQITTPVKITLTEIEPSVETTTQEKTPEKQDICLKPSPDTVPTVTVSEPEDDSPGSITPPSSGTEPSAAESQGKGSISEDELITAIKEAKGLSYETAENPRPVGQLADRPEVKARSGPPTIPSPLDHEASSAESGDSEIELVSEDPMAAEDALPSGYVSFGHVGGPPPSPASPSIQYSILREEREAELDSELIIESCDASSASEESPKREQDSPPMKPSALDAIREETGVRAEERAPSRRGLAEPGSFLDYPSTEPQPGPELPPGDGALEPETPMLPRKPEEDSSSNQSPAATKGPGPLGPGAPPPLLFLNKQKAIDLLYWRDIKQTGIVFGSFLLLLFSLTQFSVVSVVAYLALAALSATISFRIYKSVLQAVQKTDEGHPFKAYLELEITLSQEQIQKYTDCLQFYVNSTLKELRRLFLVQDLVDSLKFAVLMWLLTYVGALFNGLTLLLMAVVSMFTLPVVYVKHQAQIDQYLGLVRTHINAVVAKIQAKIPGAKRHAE
FLAG-HA-RTN1S (Q16799-3, form named): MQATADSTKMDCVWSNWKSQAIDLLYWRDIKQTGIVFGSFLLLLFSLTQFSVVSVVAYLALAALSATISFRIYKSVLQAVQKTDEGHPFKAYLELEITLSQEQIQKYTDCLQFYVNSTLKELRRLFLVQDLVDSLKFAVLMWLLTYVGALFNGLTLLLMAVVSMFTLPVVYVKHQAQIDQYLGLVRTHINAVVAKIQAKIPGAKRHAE
UniProt O95197: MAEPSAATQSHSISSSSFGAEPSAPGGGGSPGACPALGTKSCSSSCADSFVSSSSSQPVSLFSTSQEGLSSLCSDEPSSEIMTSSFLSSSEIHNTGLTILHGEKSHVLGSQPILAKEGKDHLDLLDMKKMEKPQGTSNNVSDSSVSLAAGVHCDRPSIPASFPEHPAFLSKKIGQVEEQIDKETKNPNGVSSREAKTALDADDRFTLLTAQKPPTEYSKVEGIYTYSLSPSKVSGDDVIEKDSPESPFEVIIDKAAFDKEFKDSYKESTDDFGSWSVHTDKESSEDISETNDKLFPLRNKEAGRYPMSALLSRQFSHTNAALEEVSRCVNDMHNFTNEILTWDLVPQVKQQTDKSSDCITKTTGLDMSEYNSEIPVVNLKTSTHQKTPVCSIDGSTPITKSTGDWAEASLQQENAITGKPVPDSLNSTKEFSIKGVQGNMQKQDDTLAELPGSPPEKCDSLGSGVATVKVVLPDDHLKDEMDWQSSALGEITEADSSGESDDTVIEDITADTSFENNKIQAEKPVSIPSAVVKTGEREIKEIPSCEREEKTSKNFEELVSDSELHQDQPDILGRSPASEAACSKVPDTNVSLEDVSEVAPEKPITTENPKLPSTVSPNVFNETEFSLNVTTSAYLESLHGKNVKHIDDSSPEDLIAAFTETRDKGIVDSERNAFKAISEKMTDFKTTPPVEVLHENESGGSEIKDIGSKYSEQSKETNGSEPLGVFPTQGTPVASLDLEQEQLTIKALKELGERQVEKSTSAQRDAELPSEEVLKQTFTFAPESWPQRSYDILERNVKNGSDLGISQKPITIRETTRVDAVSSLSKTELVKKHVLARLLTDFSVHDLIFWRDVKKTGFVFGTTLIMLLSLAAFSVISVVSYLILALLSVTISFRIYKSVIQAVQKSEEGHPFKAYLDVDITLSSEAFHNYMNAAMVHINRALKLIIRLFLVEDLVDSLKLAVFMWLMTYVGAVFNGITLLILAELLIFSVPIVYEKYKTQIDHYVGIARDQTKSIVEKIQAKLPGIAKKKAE
FLAG-HA-RTN3S (O95197-3, form named): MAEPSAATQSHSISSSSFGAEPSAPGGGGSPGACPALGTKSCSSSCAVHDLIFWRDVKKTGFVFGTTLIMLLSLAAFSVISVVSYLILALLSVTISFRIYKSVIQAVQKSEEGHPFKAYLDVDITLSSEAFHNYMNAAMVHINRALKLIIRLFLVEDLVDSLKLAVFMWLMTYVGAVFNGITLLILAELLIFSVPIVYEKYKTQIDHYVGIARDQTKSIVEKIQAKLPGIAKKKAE
UniProt Q9H6L5: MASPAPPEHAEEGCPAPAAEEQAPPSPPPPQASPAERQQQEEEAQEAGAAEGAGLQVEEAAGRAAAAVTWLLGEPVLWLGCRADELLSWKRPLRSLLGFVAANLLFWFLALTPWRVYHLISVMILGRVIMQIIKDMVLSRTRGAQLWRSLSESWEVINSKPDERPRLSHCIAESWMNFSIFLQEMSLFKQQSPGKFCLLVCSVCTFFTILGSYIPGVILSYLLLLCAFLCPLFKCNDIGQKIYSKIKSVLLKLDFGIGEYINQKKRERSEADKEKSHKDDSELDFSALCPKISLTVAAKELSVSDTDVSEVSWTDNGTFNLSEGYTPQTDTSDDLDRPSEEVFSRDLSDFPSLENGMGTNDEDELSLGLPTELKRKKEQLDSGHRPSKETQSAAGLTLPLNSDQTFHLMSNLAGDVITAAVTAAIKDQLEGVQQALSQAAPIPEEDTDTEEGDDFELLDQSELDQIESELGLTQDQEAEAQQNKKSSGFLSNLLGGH
UniProt O95166: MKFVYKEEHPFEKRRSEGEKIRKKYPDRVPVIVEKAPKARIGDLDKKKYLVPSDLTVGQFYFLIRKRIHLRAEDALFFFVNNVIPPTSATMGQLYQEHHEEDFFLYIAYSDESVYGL

Results are given in words; binding and its absence hold for the method and conditions named. Binding seen in cells or lysates may run through a third protein. Some results given as binding are weak or reduced against the parent protein; the word gives no strength. For part of these data: Sequences can lack the tags named with a protein.

The target of assay [1] is RTN4L (co-overexpressed in HEK293T) (human) (UniProt Q9NQC3). Description: co-IP; proteins co-overexpressed in HEK293T for 24 hr; IP with anti-HA-agarose (overnight) or GFP-TRAP beads (2 hr) at 4°C; 50 mM HEPES pH 7.5, 150 mM NaCl, 1% Triton X-100, 10% glycerol.
The target of assay [2] is T1, RTN2L (co-overexpressed in HEK293T) (human) (UniProt O75298).
T1 sequence: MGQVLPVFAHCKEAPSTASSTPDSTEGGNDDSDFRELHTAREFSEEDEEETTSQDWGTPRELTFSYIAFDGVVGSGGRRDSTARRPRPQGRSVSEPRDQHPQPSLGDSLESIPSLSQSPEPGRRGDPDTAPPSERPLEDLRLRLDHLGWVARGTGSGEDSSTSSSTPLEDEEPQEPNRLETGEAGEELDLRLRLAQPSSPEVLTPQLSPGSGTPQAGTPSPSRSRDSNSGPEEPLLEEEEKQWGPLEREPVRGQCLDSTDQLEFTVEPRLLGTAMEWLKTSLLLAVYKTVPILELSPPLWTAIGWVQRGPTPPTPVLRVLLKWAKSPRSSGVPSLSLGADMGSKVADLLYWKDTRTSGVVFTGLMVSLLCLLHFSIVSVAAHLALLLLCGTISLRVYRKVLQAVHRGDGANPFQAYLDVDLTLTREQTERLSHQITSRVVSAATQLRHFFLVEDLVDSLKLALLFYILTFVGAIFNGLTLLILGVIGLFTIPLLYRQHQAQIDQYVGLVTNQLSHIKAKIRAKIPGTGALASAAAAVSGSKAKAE
The description is as above.

The target of assay [3] is RTN1L (co-overexpressed in HEK293T) (human) (UniProt Q16799). The assay is described as above.
In assay [4] the target is endogenous RTN3 (human (endogenous in A549)) (UniProt O95197). The assay can be described thus: co-IP; endogenous proteins; A549 lysate (bafilomycin A1 200 ng/ml 2 hr) with RTN3 antibody overnight at 4°C, then Protein A-Agarose; 50 mM Tris/HCl pH 8, 120 mM NaCl, 1% NP40.
A further assay deals with FLAG-HA-RTN1L (human) (UniProt Q16799). The assay can be described thus: co-IP; anti-HA-agarose IP of FLAG-HA-RTN isoforms from U2OS TRex stable lines (doxycycline 1 µg/ml 24 hr, bafilomycin A1 200 ng/ml 2 hr); 50 mM Tris/HCl pH 8, 120 mM NaCl, 1% NP40; overnight at 4°C; blot for endogenous GABARAP and GABARAP-L1.
The next assay has as its target T2, FLAG-HA-RTN2S (human) (UniProt O75298).
T2 sequence: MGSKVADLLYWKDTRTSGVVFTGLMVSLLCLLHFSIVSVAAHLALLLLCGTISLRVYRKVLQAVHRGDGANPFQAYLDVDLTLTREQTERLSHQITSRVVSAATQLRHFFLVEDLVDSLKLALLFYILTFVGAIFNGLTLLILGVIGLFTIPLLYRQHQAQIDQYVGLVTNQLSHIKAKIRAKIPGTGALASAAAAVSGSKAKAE
The description is as above.

A further assay concerns the target FLAG-HA-RTN3S (human) (UniProt O95197). The assay is described as above.
A further assay addresses T3, FLAG-HA-RTN2L (human) (UniProt O75298).
T3 sequence: T1 sequence
The assay is described as above.

For a further assay, the target named is FLAG-HA-RTN1S (human) (UniProt Q16799). The description is as above.
In another assay the target is FLAG-HA-RTN4S (human) (UniProt Q9NQC3). The description is as above.
A further assay concerns the target FLAG-HA-RTN4L (human) (UniProt Q9NQC3). Described as above.
Assay [5] has as its target FAM134B (co-overexpressed in HEK293T) (human) (UniProt Q9H6L5). The assay can be described thus: co-IP; proteins co-overexpressed in HEK293T for 24 hr; IP with anti-HA-agarose (overnight) or GFP-TRAP beads (2 hr) at 4°C; 50 mM HEPES pH 7.5, 150 mM NaCl, 1% Triton X-100, 10% glycerol.

Regarding “RTN1L (co-overexpressed in HEK293T) (from UniProt Q16799-1 1-776)”, the binding result in assay [1] and in [2] was “binds” each time.

Take “RTN3S (co-overexpressed in HEK293T) (from UniProt O95197-3 1-236)”: the binding entry in assay [1], in [2] and in [3] was “binds” throughout.

With “RTN4S (co-overexpressed in HEK293T) (from UniProt Q9NQC3-3 1-199)”, the binding result in assay [2] and in [3] was “binds” each time.

As to “RTN1S (co-overexpressed in HEK293T) (from UniProt Q16799-3 1-208)”, the binding result in assay [1] and in assay [2] was “binds” each time.

Consider “RTN4L (co-overexpressed in HEK293T) (from UniProt Q9NQC3-1 1-1192)”, for which the binding result in [2] and in assay [3] was “binds” throughout.

Consider “GABARAP (endogenous) (from UniProt O95166 1-117)”, for which the binding entry in assay [4] is “binds”; in the assay with FLAG-HA-RTN1L (human), “no binding”; with FLAG-HA-RTN2S (human) it was “no binding”; with FLAG-HA-RTN3S (human), “no binding”; with FLAG-HA-RTN2L (human), “no binding”; with FLAG-HA-RTN1S (human), “no binding”. Moreover, the binding entry in the assay with FLAG-HA-RTN4S (human) and in the assay with FLAG-HA-RTN4L (human) was “no binding” in each case.

B1: RTN2S (co-overexpressed in HEK293T) (protein, UniProt O75298-3 1-205)
chain: T2 sequence
B1: the binding entry in [1] and in assay [3] was “binds” in each case.

B2: RTN2L (co-overexpressed in HEK293T) (protein, UniProt O75298-1 1-545)
chain: T1 sequence
For B2, the binding result in assay [1], in [5] and in assay [3] was “binds” in each case.
